# Results as given in the supplement of paper PMC11876631.
# ± gives the standard deviation of the averaged measurements. Laboratory Escherichia coli strains with one amino-acid change in an essential protein, pooled on minimal glucose agar with carbenicillin or gentamicin at twice the control MIC (plus kanamycin and chloramphenicol for the plasmids), 48 h. Fold change of barcode share against drug-free plates; higher = less susceptible. Active = above 20 in both replicates (the paper's putatively resistant). '<' = one read or none on drug, '>' = one read or none on a drug-free plate. Shares are relative, so most strains fall below 1 when a few take over. Listed are strains with at least 15 reads on both drug-free plates, and hits; most hits rest on fewer reference reads. Replicate rank correlation about 0.5. Edits are read from barcodes.
# Target: Escherichia coli (laboratory strain)
# Experiment: barcode share on antibiotic plates over drug-free plates; higher = less susceptible
# Protocol: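 A pool of E. coli strains, each edited to carry one amino-acid change in an essential protein, was grown for 48 h on minimal glucose agar with or without antibiotic; strain barcodes were sequenced; mean of two replicates.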
# [1] = antibiotic: carbenicillin, 2× MIC (3.1 µg/mL)
# [2] = antibiotic: gentamicin, 2× MIC (MIC 0.45 µg/mL)
Protein,fold change of barcode share [1],fold change of barcode share [2]
glnS I457A (protein) MSEAEARPTNFIRQIIDEDLASGKHTTVHTRFPPEPNGYLHIGHAKSICLNFGIAQDYKGQCNLRFDDTNPVKEDIEYVESIKNDVEWLGFHWSGNVRYSSDYFDQLHAYAIELINKGLAYVDELTPEQIREYRGTLTQPGKNSPYRDRSVEENLALFEKMRAGGFEEGKACLRAKIDMASPFIVMRDPVLYRIKFAEHHQTGNKWCIYPMYDFTHCISDALEGITHSLCTLEFQDNRRLYDWVLDNITIPVHPRQYEFSRLNLEYTVMSKRKLNLLVTDKHVEGWDDPRMPTISGLRRRGYTAASIREFCKRIGVTKQDNTIEMASLESCIREDLNENAPRAMAVIDPVKLVIENYQGEGEMVTMPNHPNKPEMGSRQVPFSGEIWIDRADFREEANKQYKRLVLGKEVRLRNAYVIKAERVEKDAEGNITTIFCTYDADTLSKDPADGRKVKGVAHWVSAAHALPVEIRLYDRLFSVPNPGAADDFLSVINPESLVIKQGFAEPSLKDAVAGKAFQFEREGYFCLDSRHSTAEKPVFNRTVGLRDTWAKVGE,0.402 ± 0.14,0.00466 ± 0.0038
glnS I457W (protein) MSEAEARPTNFIRQIIDEDLASGKHTTVHTRFPPEPNGYLHIGHAKSICLNFGIAQDYKGQCNLRFDDTNPVKEDIEYVESIKNDVEWLGFHWSGNVRYSSDYFDQLHAYAIELINKGLAYVDELTPEQIREYRGTLTQPGKNSPYRDRSVEENLALFEKMRAGGFEEGKACLRAKIDMASPFIVMRDPVLYRIKFAEHHQTGNKWCIYPMYDFTHCISDALEGITHSLCTLEFQDNRRLYDWVLDNITIPVHPRQYEFSRLNLEYTVMSKRKLNLLVTDKHVEGWDDPRMPTISGLRRRGYTAASIREFCKRIGVTKQDNTIEMASLESCIREDLNENAPRAMAVIDPVKLVIENYQGEGEMVTMPNHPNKPEMGSRQVPFSGEIWIDRADFREEANKQYKRLVLGKEVRLRNAYVIKAERVEKDAEGNITTIFCTYDADTLSKDPADGRKVKGVWHWVSAAHALPVEIRLYDRLFSVPNPGAADDFLSVINPESLVIKQGFAEPSLKDAVAGKAFQFEREGYFCLDSRHSTAEKPVFNRTVGLRDTWAKVGE,0.325 ± 0.095,< 0.0137
glnS I457Q (protein) MSEAEARPTNFIRQIIDEDLASGKHTTVHTRFPPEPNGYLHIGHAKSICLNFGIAQDYKGQCNLRFDDTNPVKEDIEYVESIKNDVEWLGFHWSGNVRYSSDYFDQLHAYAIELINKGLAYVDELTPEQIREYRGTLTQPGKNSPYRDRSVEENLALFEKMRAGGFEEGKACLRAKIDMASPFIVMRDPVLYRIKFAEHHQTGNKWCIYPMYDFTHCISDALEGITHSLCTLEFQDNRRLYDWVLDNITIPVHPRQYEFSRLNLEYTVMSKRKLNLLVTDKHVEGWDDPRMPTISGLRRRGYTAASIREFCKRIGVTKQDNTIEMASLESCIREDLNENAPRAMAVIDPVKLVIENYQGEGEMVTMPNHPNKPEMGSRQVPFSGEIWIDRADFREEANKQYKRLVLGKEVRLRNAYVIKAERVEKDAEGNITTIFCTYDADTLSKDPADGRKVKGVQHWVSAAHALPVEIRLYDRLFSVPNPGAADDFLSVINPESLVIKQGFAEPSLKDAVAGKAFQFEREGYFCLDSRHSTAEKPVFNRTVGLRDTWAKVGE,0.644 ± 0.52,0.0084 ± 0.0011
glnS I457D (protein) MSEAEARPTNFIRQIIDEDLASGKHTTVHTRFPPEPNGYLHIGHAKSICLNFGIAQDYKGQCNLRFDDTNPVKEDIEYVESIKNDVEWLGFHWSGNVRYSSDYFDQLHAYAIELINKGLAYVDELTPEQIREYRGTLTQPGKNSPYRDRSVEENLALFEKMRAGGFEEGKACLRAKIDMASPFIVMRDPVLYRIKFAEHHQTGNKWCIYPMYDFTHCISDALEGITHSLCTLEFQDNRRLYDWVLDNITIPVHPRQYEFSRLNLEYTVMSKRKLNLLVTDKHVEGWDDPRMPTISGLRRRGYTAASIREFCKRIGVTKQDNTIEMASLESCIREDLNENAPRAMAVIDPVKLVIENYQGEGEMVTMPNHPNKPEMGSRQVPFSGEIWIDRADFREEANKQYKRLVLGKEVRLRNAYVIKAERVEKDAEGNITTIFCTYDADTLSKDPADGRKVKGVDHWVSAAHALPVEIRLYDRLFSVPNPGAADDFLSVINPESLVIKQGFAEPSLKDAVAGKAFQFEREGYFCLDSRHSTAEKPVFNRTVGLRDTWAKVGE,0.486 ± 0.15,0.0121 ± 0.0074
glnS I457P (protein) MSEAEARPTNFIRQIIDEDLASGKHTTVHTRFPPEPNGYLHIGHAKSICLNFGIAQDYKGQCNLRFDDTNPVKEDIEYVESIKNDVEWLGFHWSGNVRYSSDYFDQLHAYAIELINKGLAYVDELTPEQIREYRGTLTQPGKNSPYRDRSVEENLALFEKMRAGGFEEGKACLRAKIDMASPFIVMRDPVLYRIKFAEHHQTGNKWCIYPMYDFTHCISDALEGITHSLCTLEFQDNRRLYDWVLDNITIPVHPRQYEFSRLNLEYTVMSKRKLNLLVTDKHVEGWDDPRMPTISGLRRRGYTAASIREFCKRIGVTKQDNTIEMASLESCIREDLNENAPRAMAVIDPVKLVIENYQGEGEMVTMPNHPNKPEMGSRQVPFSGEIWIDRADFREEANKQYKRLVLGKEVRLRNAYVIKAERVEKDAEGNITTIFCTYDADTLSKDPADGRKVKGVPHWVSAAHALPVEIRLYDRLFSVPNPGAADDFLSVINPESLVIKQGFAEPSLKDAVAGKAFQFEREGYFCLDSRHSTAEKPVFNRTVGLRDTWAKVGE,0.401 ± 0.1,< 0.00772
glnS V460A (protein) MSEAEARPTNFIRQIIDEDLASGKHTTVHTRFPPEPNGYLHIGHAKSICLNFGIAQDYKGQCNLRFDDTNPVKEDIEYVESIKNDVEWLGFHWSGNVRYSSDYFDQLHAYAIELINKGLAYVDELTPEQIREYRGTLTQPGKNSPYRDRSVEENLALFEKMRAGGFEEGKACLRAKIDMASPFIVMRDPVLYRIKFAEHHQTGNKWCIYPMYDFTHCISDALEGITHSLCTLEFQDNRRLYDWVLDNITIPVHPRQYEFSRLNLEYTVMSKRKLNLLVTDKHVEGWDDPRMPTISGLRRRGYTAASIREFCKRIGVTKQDNTIEMASLESCIREDLNENAPRAMAVIDPVKLVIENYQGEGEMVTMPNHPNKPEMGSRQVPFSGEIWIDRADFREEANKQYKRLVLGKEVRLRNAYVIKAERVEKDAEGNITTIFCTYDADTLSKDPADGRKVKGVIHWASAAHALPVEIRLYDRLFSVPNPGAADDFLSVINPESLVIKQGFAEPSLKDAVAGKAFQFEREGYFCLDSRHSTAEKPVFNRTVGLRDTWAKVGE,0.636 ± 0.16,0.00406 ± 0.0031
glnS V460Q (protein) MSEAEARPTNFIRQIIDEDLASGKHTTVHTRFPPEPNGYLHIGHAKSICLNFGIAQDYKGQCNLRFDDTNPVKEDIEYVESIKNDVEWLGFHWSGNVRYSSDYFDQLHAYAIELINKGLAYVDELTPEQIREYRGTLTQPGKNSPYRDRSVEENLALFEKMRAGGFEEGKACLRAKIDMASPFIVMRDPVLYRIKFAEHHQTGNKWCIYPMYDFTHCISDALEGITHSLCTLEFQDNRRLYDWVLDNITIPVHPRQYEFSRLNLEYTVMSKRKLNLLVTDKHVEGWDDPRMPTISGLRRRGYTAASIREFCKRIGVTKQDNTIEMASLESCIREDLNENAPRAMAVIDPVKLVIENYQGEGEMVTMPNHPNKPEMGSRQVPFSGEIWIDRADFREEANKQYKRLVLGKEVRLRNAYVIKAERVEKDAEGNITTIFCTYDADTLSKDPADGRKVKGVIHWQSAAHALPVEIRLYDRLFSVPNPGAADDFLSVINPESLVIKQGFAEPSLKDAVAGKAFQFEREGYFCLDSRHSTAEKPVFNRTVGLRDTWAKVGE,1.04 ± 0.74,0.0482 ± 0.038
accA V195A (protein) MSLNFLDFEQPIAELEAKIDSLTAVSRQDEKLDINIDEEVHRLREKSVELTRKIFADLGAWQIAQLARHPQRPYTLDYVRLAFDEFDELAGDRAYADDKAIVGGIARLDGRPVMIIGHQKGRETKEKIRRNFGMPAPEGYRKALRLMQMAERFKMPIITFIDTPGAYPGVGAEERGQSEAIARNLREMSRLGVPAVCTVIGEGGSGGALAIGVGDKVNMLQYSTYSVISPEGCASILWKSADKAPLAAEAMGIIAPRLKELKLIDSIIPEPLGGAHRNPEAMAASLKAQLLADLADLDVLSTEDLKNRRYQRLMSYGYA,0.327 ± 0.19,0.00621 ± 0.0047
gltX L28A (protein) MKIKTRFAPSPTGYLHVGGARTALYSWAFARNHGGEFVLRIEDTDLERSTPEAIEAIMDGMNWLSLEWDEGPYYQTKRFDRYNAVIDQMLEEGTAYKCYCSKERLEALREEQMAKGEKPRYDGRCRHSHEHHADDEPCVVRFANPQEGSVVFDDQIRGPIEFSNQELDDLIIRRTDGSPTYNFCVVVDDWDMEITHVIRGEDHINNTPRQINILKALKAPVPVYAHVSMINGDDGKKLSKRHGAVSVMQYRDDGYLPEALLNYLVRLGWSHGDQEIFTREEMIKYFTLNAVSKSASAFNTDKLLWLNHHYINALPPEYVATHLQWHIEQENIDTRNGPQLADLVKLLGERCKTLKEMAQSCRYFYEDFAEFDADAAKKHLRPVARQPLEVVRDKLAAITDWTAENVHHAIQATADELEVGMGKVGMPLRVAVTGAGQSPALDVTVHAIGKTRSIERINKALDFIAERENQQ,0.442 ± 0.043,0.00837 ± 0.01
gltX L28W (protein) MKIKTRFAPSPTGYLHVGGARTALYSWWFARNHGGEFVLRIEDTDLERSTPEAIEAIMDGMNWLSLEWDEGPYYQTKRFDRYNAVIDQMLEEGTAYKCYCSKERLEALREEQMAKGEKPRYDGRCRHSHEHHADDEPCVVRFANPQEGSVVFDDQIRGPIEFSNQELDDLIIRRTDGSPTYNFCVVVDDWDMEITHVIRGEDHINNTPRQINILKALKAPVPVYAHVSMINGDDGKKLSKRHGAVSVMQYRDDGYLPEALLNYLVRLGWSHGDQEIFTREEMIKYFTLNAVSKSASAFNTDKLLWLNHHYINALPPEYVATHLQWHIEQENIDTRNGPQLADLVKLLGERCKTLKEMAQSCRYFYEDFAEFDADAAKKHLRPVARQPLEVVRDKLAAITDWTAENVHHAIQATADELEVGMGKVGMPLRVAVTGAGQSPALDVTVHAIGKTRSIERINKALDFIAERENQQ,0.415 ± 0.22,0.00412 ± 0.0047
